Test results as given in patent US20230414771A1, “PREPARATION AND USE OF IMMUNOSTIMULATORY CONJUGATED COMPLEXES FOR TARGETED DELIVERY AND ACTIVATION” (YAFEI SHANGHAI BIOLOGY MEDICINE SCIENCE & TECHNOLOGY CO., …, priority 2020, published 2023).

Experiment: Water solubility test (observation and HPLC)
Format: physicochemical
Details: thermodynamic from solid; lyophilized compound dissolved in water; checked by observation and HPLC (>95%)
Method: The compounds prepared in accordance with the examples of the disclosure and the reference compounds C1, C2, C3 and C4 were lyophilized (−70° C.).

SMILES	solubility [mg/mL]
COc1cccc2c1C(=O)c1c(O)c3c(c(O)c1C2=O)C[C@@](O)(C(=O)CO)C[C@@H]3O[C@@H]1C[C@H](NC(=O)OCc2ccc(NC(=O)[C@@H](CC(N)=O)NC(=O)[C@@H](C)NC(=O)[C@@H](C)NC(=O)CCOCCOCCNC(=O)CCN3C(=O)C=CC3=O)cc2)[C@@H](O)[C@H](C)O1 [QHL-086-epirubicin]	> 20
COc1cccc2c1C(=O)c1c(O)c3c(c(O)c1C2=O)C[C@@](O)(C(=O)CO)C[C@@H]3O[C@@H]1C[C@H](NC(=O)C(CC(C)C)NC(=O)[C@@H](CC(N)=O)NC(=O)[C@@H](C)NC(=O)[C@@H](C)NC(=O)CCOCCOCCNC(=O)CCN2C(=O)C=CC2=O)[C@@H](O)[C@H](C)O1 (stereo partly shown) [QHL-087-epirubicin]	> 10
COc1cccc2c1C(=O)c1c(O)c3c(c(O)c1C2=O)C[C@@](O)(C(=O)CO)C[C@@H]3O[C@H]1C[C@H](NC(=O)[C@H](CC(C)C)NC(=O)[C@H](CC(N)=O)NC(=O)[C@H](C)NC(=O)[C@H](C)NC(=O)CCOCCOCCOCCNC(=O)CCN2C(=O)C=CC2=O)[C@H](O)[C@H](C)O1 [QHL-090-DOX]	> 10
C[C@H](NC(=O)CCOCCOCCOCCOCCOCCOCCN1C(=O)C=CC1=O)C(=O)N[C@@H](C)C(=O)NC(CC(N)=O)C(=O)Nc1ccc(COC(=O)OCC(=O)[C@]2(O)CCC3[C@H]4CCC5=CC(=O)C=C[C@@]5(C)C4C(=O)C[C@]32C)cc1 (stereo partly shown) [QHL-008-prednisone]	> 10
CO[C@@]12[C@@H]3N[C@@H]3CN1C1=C(C(=O)C(NC(=O)OCc3ccc(NC(=O)[C@@H](CC(N)=O)NC(=O)[C@@H](C)NC(=O)[C@@H](C)NC(=O)CCOCCOCCNC(=O)CCN4C(=O)C=CC4=O)cc3)=C(C)C1=O)[C@@H]2COC(N)=O [QHL-086-mitomycin]	> 20
COc1cccc2c1C(=O)c1c(O)c3c(c(O)c1C2=O)C[C@@](O)(C(=O)CO)C[C@@H]3O[C@H]1C[C@H](NC(=O)[C@H](CC(C)C)NC(=O)[C@H](CC(N)=O)NC(=O)[C@H](C)NC(=O)[C@H](C)NC(=O)[C@H](CC(=O)O)NC(=O)CCOCCOCCOCCNC(=O)CCCN2C(=O)C=CC2=O)[C@H](O)[C@H](C)O1 [QHL-072-DOX] ({Butanoyl(4-maleimido)-PEG3}-DAANL-{Doxorubicin(3'-N)})	> 25
CC(C)C[C@H](NC(=O)[C@H](CC(N)=O)NC(=O)[C@H](C)NC(=O)[C@H](C)NC(=O)CCOCCOCCOCCNC(=O)CCN1C(=O)C=CC1=O)C(=O)N1CC2(C1)C(=O)[O][Pt-2]([NH3+])([NH3+])[O]C2=O [QHL-090-N-CBP] ({Propanoyl(3-maleimido)-PEG3}-AANL-X4)	> 10
C[C@H](NC(=O)[C@H](C)NC(=O)[C@H](CC(=O)O)NC(=O)CCCCCN1C(=O)C=CC1=O)C(=O)N[C@@H](CC(N)=O)C(=O)Nc1ccc(COC(=O)OCC(=O)[C@]2(O)CCC3[C@H]4CCC5=CC(=O)C=C[C@@]5(C)C4C(=O)C[C@]32C)cc1 (stereo partly shown) [QHL-119-prednisone] ({Hexanoyl(6-maleimido)}-DAAN[PABC]-X6)	> 10
CO[C@@]12[C@@H]3N[C@@H]3CN1C1=C(C(=O)C(NC(=O)C(CC(C)C)NC(=O)[C@@H](CC(N)=O)NC(=O)[C@@H](C)NC(=O)[C@@H](C)NC(=O)CCOCCOCCNC(=O)CCN3C(=O)C=CC3=O)=C(C)C1=O)[C@@H]2COC(N)=O (stereo partly shown) [QHL-087-mitomycin] ({Propanoyl(3-maleimido)-PEG2}-[dA][dA][dN][ξL]-X8)	> 10
COc1cccc2c1C(=O)c1c(O)c3c(c(O)c1C2=O)C[C@@](O)(C(=O)CO)C[C@@H]3O[C@H]1C[C@H](NC(=O)[C@H](CC(C)C)NC(=O)[C@H](CC(N)=O)NC(=O)[C@H](C)NC(=O)[C@H](C)NC(=O)CCOCCOCCN2C(=O)C=CC2=O)[C@H](O)[C@H](C)O1 [QHL-009-DOX] (X3-AANL-{Doxorubicin(3'-N)})	> 10
CC(NC(=O)CCOCCOCCOCCOCCNC(=O)CCCCN1C(=O)C=CC1=O)C(=O)NC(C)C(=O)NC(CC(N)=O)C(=O)Nc1ccc(COC(=O)N2CC3(C2)C(=O)[O][Pt-2]([NH3+])([NH3+])[O]C3=O)cc1 (stereo not shown) [QHL-104-N-CBP]	> 20
COc1cccc2c1C(=O)c1c(O)c3c(c(O)c1C2=O)C[C@@](O)(C(=O)CO)C[C@@H]3O[C@H]1C[C@H](NC(=O)[C@H](CC(C)C)NC(=O)[C@H](CC(N)=O)NC(=O)[C@H](C)NC(=O)[C@H](C)NC(=O)[C@H](CCC(=O)O)NC(=O)CCOCCOCCOCCOCCN2C(=O)C=CC2=O)[C@H](O)[C@H](C)O1 [QHL-023-DOX] (MaleimidoPEG4propanoyl-EAANL-{Doxorubicin(3'-N)})	> 25
COc1cccc2c1C(=O)c1c(O)c3c(c(O)c1C2=O)C[C@@](O)(C(=O)CO)C[C@@H]3O[C@H]1C[C@H](NC(=O)[C@H](CC(C)C)NC(=O)[C@H](CC(N)=O)NC(=O)[C@H](C)NC(=O)[C@H](C)NC(=O)[C@H](CC(=O)O)NC(=O)CCOCCOCCNC(=O)CCN2C(=O)C=CC2=O)[C@H](O)[C@H](C)O1 [QHL-042-DOX] ({Propanoyl(3-maleimido)-PEG2}-DAANL-{Doxorubicin(3'-N)})	> 20
CC(C)CC(NC(=O)[C@@H](CC(N)=O)NC(=O)[C@@H](C)NC(=O)[C@@H](C)NC(=O)CCOCCOCCNC(=O)CCN1C(=O)C=CC1=O)C(=O)Nc1c(-c2nc3ccc(N4CCN(C)CC4)cc3[nH]2)c(=O)[nH]c2cccc(F)c12 (stereo partly shown) [QHL-087 - Dovitinib] ({Propanoyl(3-maleimido)-PEG2}-[dA][dA][dN][ξL]-{Dovitinib(4-NH)})	> 10
COc1cccc2c1C(=O)c1c(O)c3c(c(O)c1C2=O)C[C@@](O)(C(=O)CO)C[C@@H]3O[C@H]1C[C@H](NC(=O)[C@H](CC(C)C)NC(=O)[C@H](CC(N)=O)NC(=O)[C@H](C)NC(=O)[C@H](C)NC(=O)[C@H](C)NC(=O)CCCCCN2C(=O)C=CC2=O)[C@H](O)[C@H](C)O1 [QHL-122-DOX] ({Hexanoyl(6-maleimido)}-AAANL-{Doxorubicin(3'-N)})	> 10
CC(C)CC(NC(=O)C(CC(N)=O)NC(=O)C(C)NC(=O)C(C)NC(=O)CCOCCOCCOCCOCCNC(=O)CCN1C(=O)C=CC1=O)C(=O)N1CC2(C1)C(=O)[O][Pt-2]([NH3+])([NH3+])[O]C2=O (stereo not shown) [QHL-093-N-CBP] ({Propanoyl(3-maleimido)-PEG4}-AANL-X4; configuration not given here)	> 10
CC(C)C[C@H](NC(=O)[C@H](CC(N)=O)NC(=O)[C@H](C)NC(=O)[C@H](C)NC(=O)CCOCCOCCOCCOCCOCCOCCNC(=O)CCN1C(=O)C=CC1=O)C(=O)N1CC2(C1)C(=O)[O][Pt-2]([NH3+])([NH3+])[O]C2=O [QHL-096-N-CBP] ({Propanoyl(3-maleimido)-PEG6}-AANL-X4)	> 20
COc1cccc2c1C(=O)c1c(O)c3c(c(O)c1C2=O)C[C@@](O)(C(=O)CO)C[C@@H]3O[C@H]1C[C@H](NC(=O)[C@H](CC(C)C)NC(=O)[C@H](CC(N)=O)NC(=O)[C@H](C)NC(=O)[C@H](C)NC(=O)[C@H](CCC(N)=O)NC(=O)CCCCCN2C(=O)C=CC2=O)[C@H](O)[C@H](C)O1 [QHL-134-DOX] ({Hexanoyl(6-maleimido)}-QAANL-{Doxorubicin(3'-N)})	> 5
CC(C)CC(NC(=O)[C@@H](CC(N)=O)NC(=O)[C@@H](C)NC(=O)[C@@H](C)NC(=O)CCOCCOCCOCCNC(=O)CCN1C(=O)C=CC1=O)C(=O)N(C)CCNC(=O)c1cc(Oc2ccc(NC(=O)Nc3ccc(Cl)c(C(F)(F)F)c3)c(F)c2)ccn1 (stereo partly shown) [QHL-090-compound b] ({Propanoyl(3-maleimido)-PEG3}-[dA][dA][dN][ξL]-X5)	> 10

*1 amine or outer side, *2 acyl side, *3 side chain or, on linkers, in order; H or OH if unused. Where a SMILES comes first, the peptide text is derived from it. [ ]: non-standard residue; d: D form. The star is where a group is joined. ξ: configuration not given here. Doxorubicin(3'-N) = COc1cccc2c1C(=O)c1c(O)c3c(c(O)c1C2=O)C[C@@](O)(C(=O)CO)C[C@@H]3O[C@H]1C[C@H](N*)[C@H](O)[C@H](C)O1; Dovitinib(4-NH) = CN1CCN(c2ccc3nc(-c4c(N*)c5c(F)cccc5[nH]c4=O)[nH]c3c2)CC1; X8 = CO[C@@]12[C@@H]3N[C@@H]3CN1C1=C(C(=O)C(N*)=C(C)C1=O)[C@@H]2COC(N)=O; X5 = CN(CCNC(=O)c1cc(Oc2ccc(NC(=O)Nc3ccc(Cl)c(C(F)(F)F)c3)c(F)c2)ccn1)*; X6 = C[C@@]12C=CC(=O)C=C1CC[C@H]1C2C(=O)C[C@]2(C)C1CC[C@@]2(O)C(=O)CO*; MaleimidoPEG4propanoyl = O=C1C=CC(=O)N1CCOCCOCCOCCOCCC(=O)*; X4 = [NH3+][Pt-2]1([NH3+])[O]C(=O)C2(CN(*)C2)C(=O)[O]1; Hexanoyl(6-maleimido) = O=C1C=CC(=O)N1CCCCCC(=O)*; Butanoyl(4-maleimido) = O=C1C=CC(=O)N1CCCC(=O)*; Propanoyl(3-maleimido) = O=C1C=CC(=O)N1CCC(=O)*; PABC = O=C(OCc1ccc(N[*:1])cc1)[*:2]; PEG6 = NCCOCCOCCOCCOCCOCCOCCC(=O)O; X3 = O=C1C=CC(=O)N1CCOCCOCCC(=O)*; PEG4 = NCCOCCOCCOCCOCCC(=O)O; PEG3 = NCCOCCOCCOCCC(=O)O; PEG2 = NCCOCCOCCC(=O)O; ξL = CC(C)CC(N)C(=O)O
